Assay results from the supplement of paper PMC12217912.
The other results are listed elsewhere or left out. The full chains were built here from the parent and the listed change. Inactive controls read about 0.05.

B1: TEV protease; numbered along this chain (parent)
chain: MGESLFKGPRDYNPISSSICHLTNESDGHTTSLYGIGFGPFIITNKHLFRRNNGTLVVQSLHGVFKVKDTTTLQQHLVDGRDMIIIRMPKDFPPFPQKLKFREPQREERICLVTTNFQTKSMSSMVSDTSCTFPSGDGIFWKHWIQTKDGQCGSPLVSTRDGFIVGIHSASNFTNTNNYFTSVPKNFMELLTNQEAQQWVSGWRLNADSVLWGGHKVFMVKPEEPFQPVKEATQL

Variants of: B1
Test: raw area under fraction-flipped curve 0-4 h after induction (AUC4h, not background-subtracted), DNA-recorder readout of cleavage of the substrate (dimensionless); higher = more cleavage of the substrate by the protease variant
Details: temperature: 34 °C; time window: 0-4 h after rhamnose induction
Experimental: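 In vivo DNA recorder in E. coli TOP10(DE3) ΔrhaA at 34 °C. Each TEVp single-site mutant (parent TEVp 0) is paired with a single-site variant of the 7-mer TEVs (canonical ENLYFQ|S). The substrate sits between flexible linkers in a Bxb1-sfGFP-TEVs-SsrA fusion, so cleavage stabilises Bxb1 and speeds flipping of a recombination array, read by NGS. The value is the raw area under the fraction-flipped curve over 0-4 h after rhamnose induction (AUC4h), with ≥20 reads per time point. It is not background-subtracted; inactive controls average about 0.047.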
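Further: Bxb1 expression induced with 0.2% (w/v) L-rhamnose at OD600 near 0.5, cultures sampled hourly, flipped fraction per protease–substrate barcode pair counted by paired-end Illumina sequencing.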

Row | Variant | area with substrate ENAYFQS | area with substrate ENCYFQS | area with substrate ENEYFQS | area with substrate ENGYFQS | area with substrate ENHYFQS | area with substrate ENIYFQS | area with substrate ENKYFQS | area with substrate ENMYFQS | area with substrate ENNYFQS | area with substrate ENPYFQS | area with substrate ENQYFQS | area with substrate ENRYFQS | area with substrate ENSYFQS | area with substrate ENTYFQS | area with substrate ENVYFQS | area with substrate ENDYFQS | area with substrate ENYYFQS | area with substrate ENFYFQS | area with substrate ENWYFQS
1 | F95H | 0.0383 | 0.0615 | 0.064 | 0.0577 | 0.0564 | 0.0891 | 0.0535 | 0.0867 | 0.0613 | 0.0602 | 0.0512 | 0.0585 | 0.0697 | 0.0543 | 0.0886 |  |  |  | 
2 | K98F | 0.0604 |  | 0.0657 | 0.0722 |  |  |  |  |  | 0.061 | 0.061 | 0.0544 | 0.0514 | 0.0643 |  | 0.0657 | 0.0547 |  | 
3 | K98P | 0.0599 | 0.0588 | 0.06 | 0.0584 | 0.0639 | 0.12 |  | 0.0715 | 0.0567 |  | 0.0709 | 0.0564 | 0.0519 |  | 0.078 | 0.035 |  | 0.0583 | 0.0566
4 | L99R | 0.0561 | 0.0827 | 0.0686 | 0.0859 | 0.0753 | 0.0773 |  | 0.0801 |  |  | 0.0633 |  | 0.0622 | 0.0853 | 0.0524 | 0.0758 |  | 0.077 | 0.0616
5 | L99Y | 0.0489 | 0.0661 |  |  | 0.0614 | 0.0831 | 0.0738 |  | 0.0828 | 0.0682 |  | 0.0551 | 0.0632 | 0.0392 | 0.0627 | 0.0476 | 0.0518 | 0.108 | 
6 | K100G | 0.0766 | 0.0596 | 0.073 | 0.0476 | 0.0554 | 0.104 | 0.0611 |  | 0.0599 | 0.0542 | 0.0521 | 0.044 | 0.0553 |  | 0.069 |  |  | 0.0568 | 0.0603
7 | F101V | 0.0706 |  | 0.056 |  |  |  |  | 0.0625 |  |  |  |  | 0.0535 | 0.0412 |  |  | 0.049 |  | 
8 | E103T | 0.0683 | 0.062 |  | 0.0574 | 0.0715 | 0.0937 | 0.0571 | 0.0636 |  |  | 0.0603 | 0.051 | 0.0418 | 0.0484 | 0.0725 | 0.0699 |  | 0.0693 | 
9 | Q105I | 0.0576 |  | 0.0624 | 0.0541 | 0.0624 | 0.13 |  | 0.069 |  | 0.0633 | 0.058 |  | 0.0648 | 0.0525 |  | 0.0626 |  | 0.0622 | 0.0553
10 | Q105L | 0.0669 | 0.0698 | 0.0489 | 0.0511 | 0.0712 |  |  | 0.0793 |  | 0.0689 | 0.0596 | 0.0576 | 0.05 |  | 0.0695 | 0.0749 |  | 0.0415 | 
11 | R106S | 0.061 | 0.0542 | 0.0548 | 0.0457 |  |  |  |  | 0.0647 | 0.0517 | 0.0606 | 0.0681 | 0.0731 | 0.0649 | 0.0742 | 0.0501 | 0.0709 | 0.0749 | 
12 | E107L | 0.0702 | 0.055 | 0.0654 | 0.0748 | 0.0699 | 0.108 | 0.0584 |  | 0.0629 |  |  | 0.0421 | 0.0641 | 0.0723 |  |  |  | 0.0669 | 
13 | R109L | 0.0611 | 0.0744 | 0.0511 |  |  | 0.0949 | 0.0664 | 0.0751 | 0.0617 |  | 0.061 | 0.0597 | 0.0819 | 0.0447 |  | 0.0575 | 0.0645 | 0.0782 | 
14 | I110K | 0.0523 | 0.0535 |  | 0.0593 |  | 0.0589 | 0.0629 | 0.0239 | 0.0603 | 0.0603 | 0.0582 | 0.0549 |  | 0.0599 | 0.0536 | 0.0614 | 0.0677 | 0.0496 | 
15 | I110N | 0.0581 | 0.0345 |  |  |  | 0.0522 | 0.0454 |  |  |  | 0.0572 | 0.0467 | 0.0542 | 0.0556 | 0.0585 | 0.0574 | 0.0539 | 0.0961 | 0.0421
16 | C111D | 0.0541 | 0.071 | 0.0547 | 0.0509 | 0.0519 | 0.0624 |  | 0.0568 | 0.0561 | 0.0552 | 0.0578 | 0.0681 | 0.0618 | 0.0629 | 0.0633 | 0.0582 |  | 0.0508 | 
17 | V113M | 0.0688 | 0.0682 |  |  | 0.058 | 0.0935 |  | 0.0677 | 0.064 | 0.0567 | 0.0638 | 0.0488 | 0.0491 |  | 0.0782 | 0.0701 | 0.0342 |  | 0.0232
18 | T114R | 0.0538 | 0.06 |  | 0.0888 | 0.0408 |  |  |  | 0.0684 | 0.0593 | 0.068 | 0.054 | 0.0515 | 0.0613 | 0.0742 | 0.065 |  | 0.0679 | 0.0698
19 | N116L | 0.098 | 0.0359 | 0.0577 | 0.0628 |  | 0.127 | 0.0846 |  | 0.0331 |  | 0.0594 |  | 0.0644 |  | 0.0825 |  | 0.0534 | 0.0701 | 
20 | N116P | 0.0492 | 0.0572 | 0.0728 | 0.0649 | 0.057 |  | 0.0654 | 0.0703 |  | 0.0579 | 0.0573 | 0.0417 |  | 0.0722 |  | 0.0469 | 0.0586 | 0.0143 | 
21 | N116Y | 0.0568 | 0.073 | 0.0742 | 0.0686 | 0.0612 | 0.0943 |  |  | 0.0731 | 0.0792 | 0.0591 |  |  |  | 0.0801 | 0.0625 | 0.0638 | 0.0735 | 
22 | F117E | 0.0601 | 0.138 | 0.0667 | 0.0561 | 0.0601 |  |  | 0.0786 | 0.0566 | 0.0524 | 0.0618 | 0.0568 | 0.0661 | 0.0722 | 0.0505 | 0.0615 | 0.0584 | 0.0629 | 
23 | Q118Y | 0.0553 | 0.0737 | 0.0497 |  |  |  |  | 0.0854 | 0.0665 | 0.0549 |  |  |  |  | 0.0897 | 0.0425 |  | 0.0685 | 
24 | S121I | 0.0534 | 0.0705 | 0.0651 | 0.0586 |  | 0.104 | 0.0496 |  | 0.0533 |  | 0.0649 |  | 0.0501 | 0.0486 | 0.0691 | 0.0679 |  | 0.0596 | 0.0778
25 | S121K | 0.0622 | 0.0761 | 0.0619 | 0.0587 | 0.0527 |  |  | 0.0852 | 0.057 |  | 0.0618 | 0.0672 | 0.0754 | 0.0786 | 0.067 | 0.052 | 0.0605 | 0.0659 | 
26 | M122I | 0.0622 |  | 0.0267 | 0.0615 |  | 0.0909 | 0.0533 |  | 0.0681 |  | 0.0543 |  | 0.0622 | 0.14 | 0.069 | 0.0592 |  |  | 
